Data as given in the supplement of paper PMC12217912.
Some of the results follow. The full chains were built here from the parent and the listed change. Inactive controls read about 0.05.

B1: TEV protease; numbered along this chain (parent)
chain: MGESLFKGPRDYNPISSSICHLTNESDGHTTSLYGIGFGPFIITNKHLFRRNNGTLVVQSLHGVFKVKDTTTLQQHLVDGRDMIIIRMPKDFPPFPQKLKFREPQREERICLVTTNFQTKSMSSMVSDTSCTFPSGDGIFWKHWIQTKDGQCGSPLVSTRDGFIVGIHSASNFTNTNNYFTSVPKNFMELLTNQEAQQWVSGWRLNADSVLWGGHKVFMVKPEEPFQPVKEATQL

Variants of: B1
Test: raw area under fraction-flipped curve 0-4 h after induction (AUC4h, not background-subtracted), DNA-recorder readout of cleavage of the substrate (dimensionless); higher = more cleavage of the substrate by the protease variant
Details: temperature: 34 °C; time window: 0-4 h after rhamnose induction
Method: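 In vivo DNA recorder in E. coli TOP10(DE3) ΔrhaA at 34 °C. Each TEVp single-site mutant (parent TEVp 0) is paired with a single-site variant of the 7-mer TEVs (canonical ENLYFQ|S). The substrate sits between flexible linkers in a Bxb1-sfGFP-TEVs-SsrA fusion, so cleavage stabilises Bxb1 and speeds flipping of a recombination array, read by NGS. The value is the raw area under the fraction-flipped curve over 0-4 h after rhamnose induction (AUC4h), with ≥20 reads per time point. It is not background-subtracted; inactive controls average about 0.047.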
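Further: Bxb1 expression induced with 0.2% (w/v) L-rhamnose at OD600 near 0.5, cultures sampled hourly, flipped fraction per protease–substrate barcode pair counted by paired-end Illumina sequencing.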

Row | Variant | area with substrate ENLAFQS | area with substrate ENLCFQS | area with substrate ENLDFQS | area with substrate ENLFFQS | area with substrate ENLGFQS | area with substrate ENLHFQS | area with substrate ENLIFQS | area with substrate ENLKFQS | area with substrate ENLLFQS | area with substrate ENLMFQS | area with substrate ENLNFQS | area with substrate ENLPFQS | area with substrate ENLQFQS | area with substrate ENLRFQS | area with substrate ENLSFQS | area with substrate ENLVFQS | area with substrate ENLWFQS | area with substrate ENLTFQS | area with substrate ENLEFQS
1 | R204C | 0.043 | 0.0772 | 0.0674 | 0.0819 | 0.069 | 0.0572 | 0.0862 | 0.0998 | 0.0889 | 0.101 | 0.0687 | 0.054 | 0.0967 | 0.0608 | 0.0567 | 0.102 | 0.0678 | – | –
2 | V217D | 0.0687 | – | 0.0682 | 0.0666 | – | 0.0577 | – | 0.0568 | – | – | 0.0715 | 0.0652 | – | – | 0.066 | – | 0.0607 | 0.062 | –
3 | G202H | 0.0423 | 0.0616 | – | 0.0694 | – | – | – | 0.08 | – | – | 0.0628 | 0.0684 | 0.0471 | 0.0442 | 0.0704 | – | 0.0597 | – | 0.0562
4 | G202Y | 0.0609 | 0.0569 | 0.0547 | – | – | 0.0566 | – | – | 0.0645 | 0.0754 | – | 0.0634 | – | 0.0622 | 0.0066 | 0.0595 | – | – | 0.0693
5 | P225L | 0.0666 | 0.0725 | 0.0572 | – | – | – | 0.0679 | 0.078 | – | 0.0668 | – | – | 0.0848 | 0.0635 | 0.0748 | – | – | – | –
6 | P225D | 0.0765 | – | – | 0.0925 | – | 0.0671 | 0.0889 | 0.0866 | 0.092 | – | 0.0332 | 0.0644 | 0.0646 | 0.0563 | 0.0605 | – | – | – | –
7 | P225A | 0.0345 | 0.0824 | 0.0617 | 0.0837 | – | 0.064 | 0.0728 | 0.0645 | 0.0631 | 0.0683 | 0.0644 | 0.0725 | 0.0667 | 0.0875 | 0.0654 | – | – | – | –
8 | F226I | 0.074 | 0.0816 | 0.07 | 0.0803 | 0.0702 | 0.067 | – | 0.0934 | – | 0.0822 | 0.0744 | 0.0687 | 0.0773 | – | 0.0685 | 0.0849 | – | – | –
9 | L190H | 0.0594 | 0.0795 | 0.0534 | 0.0828 | – | 0.0626 | – | 0.0625 | 0.0716 | – | 0.0679 | 0.0651 | 0.0767 | 0.062 | 0.0503 | – | – | 0.0702 | –
10 | P228V | 0.055 | – | 0.0388 | 0.129 | – | 0.081 | – | – | – | 0.0865 | 0.0679 | 0.0632 | 0.0887 | – | 0.0443 | 0.0859 | 0.0665 | – | 0.0733
11 | P228H | 0.0595 | – | 0.0529 | 0.0847 | – | 0.082 | 0.0674 | 0.0721 | 0.0812 | – | 0.077 | 0.061 | 0.057 | 0.06 | 0.0661 | 0.0672 | – | – | 0.052
12 | P228Q | 0.0688 | 0.0753 | 0.06 | 0.0822 | – | 0.078 | 0.0865 | 0.0841 | – | 0.0664 | 0.0718 | 0.057 | – | 0.0783 | 0.0517 | – | 0.053 | – | 0.0822
13 | Y179K | 0.0635 | – | 0.0617 | – | 0.0597 | – | – | 0.0647 | – | – | 0.0662 | – | 0.0377 | – | – | 0.0574 | – | 0.0518 | 0.064
14 | K221V | 0.0663 | – | 0.0667 | – | – | 0.0689 | 0.0946 | 0.0562 | 0.0373 | – | – | 0.0568 | – | 0.0703 | 0.0777 | – | – | 0.05 | –
15 | E223H | 0.0783 | 0.0958 | 0.0659 | 0.0651 | 0.0715 | 0.0764 | – | – | – | – | 0.0558 | – | 0.0778 | 0.0773 | 0.0759 | 0.089 | – | – | 0.05
16 | L211H | 0.0636 | – | – | – | – | – | – | – | – | 0.0694 | 0.0688 | – | – | 0.073 | – | – | 0.0616 | – | –
17 | S209F | 0.0594 | 0.0809 | 0.0541 | 0.112 | 0.0533 | 0.0793 | 0.0973 | 0.0916 | 0.074 | – | 0.0592 | 0.0569 | 0.0867 | – | – | – | – | – | 0.0594
18 | P222E | 0.0571 | – | 0.0645 | 0.0707 | – | 0.068 | 0.0715 | 0.0808 | – | 0.07 | 0.062 | 0.0589 | – | 0.0605 | 0.0551 | 0.0688 | – | – | 0.068
19 | V183R | 0.0586 | 0.0639 | – | 0.0487 | – | – | 0.0533 | 0.0581 | 0.0481 | 0.0651 | 0.0505 | 0.0549 | – | 0.0602 | 0.0499 | 0.0566 | 0.0575 | – | –
20 | S182N | 0.0631 | 0.0525 | 0.0527 | 0.0749 | 0.0581 | 0.0556 | – | 0.0608 | 0.0499 | – | 0.0496 | 0.0461 | 0.0492 | 0.0417 | 0.0633 | – | – | – | –
21 | S182K | 0.0725 | 0.0317 | 0.0623 | 0.0847 | 0.0573 | 0.064 | – | 0.073 | – | 0.0899 | 0.0621 | 0.0581 | 0.0555 | – | 0.0405 | 0.0676 | 0.0635 | – | 0.0615
22 | M188W | 0.0918 | 0.0643 | 0.0576 | 0.0696 | 0.0569 | 0.0576 | – | 0.0833 | 0.0412 | – | 0.0659 | 0.0542 | 0.0584 | – | 0.0546 | 0.0837 | – | – | 0.0625
23 | M188E | 0.0493 | – | 0.0772 | 0.0813 | – | 0.0696 | – | – | 0.0675 | – | 0.0692 | – | 0.0523 | – | 0.0616 | – | – | – | –
24 | K230F | 0.06 | – | 0.0604 | 0.0842 | 0.0638 | 0.0778 | 0.0836 | 0.0776 | – | – | 0.0756 | 0.0645 | 0.0701 | 0.0669 | 0.0656 | – | 0.0695 | – | 0.0539
25 | L191G | 0.0517 | 0.0449 | 0.0643 | 0.0691 | 0.0781 | 0.0491 | – | 0.0661 | 0.0438 | 0.0577 | 0.0549 | – | 0.0586 | 0.0512 | 0.0521 | – | – | 0.0573 | –
26 | L191D | 0.0793 | – | – | 0.0655 | – | – | – | 0.058 | – | – | 0.0446 | 0.0541 | – | 0.0552 | 0.0589 | 0.0612 | – | – | 0.0776
27 | M219G | 0.0652 | – | 0.0639 | 0.0633 | 0.0879 | 0.0599 | – | 0.0661 | 0.0529 | – | 0.0605 | – | 0.0465 | – | 0.056 | 0.0595 | – | – | 0.067
28 | A196K | 0.0664 | 0.0713 | 0.0646 | 0.0862 | – | 0.0721 | 0.0684 | 0.0773 | 0.0674 | 0.0657 | 0.0682 | 0.0536 | – | 0.0809 | 0.0628 | 0.0801 | 0.0972 | 0.0738 | –
29 | A196E | 0.0588 | – | 0.0643 | 0.104 | – | 0.0924 | 0.0883 | 0.072 | 0.0768 | – | 0.0561 | 0.0548 | 0.0577 | 0.0746 | 0.0264 | 0.0563 | 0.0715 | – | 0.0738
